Laboratory results: the supplement of paper PMC8728848
The other results are listed elsewhere or left out.

Columns and labels:
Assay in all cases: glycan array binding signal (z-score within array); higher = stronger binding
Settings in all cases: glycan notation: IUPAC condensed, linker removed
[1] = biological target: GlcNAc(b1-3)Gal(b1-4)Glc
Outline: (§1)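 The binding signal is a Z-score computed within each array and averaged over linkers. Arrays of the same protein sequence at different concentrations or buffers were also averaged together. Data originate from 3228 arrays in the Consortium for Functional Glycomics database, kept only where the protein sequence was available.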

[2] = biological target: GlcNAc(b1-3)Gal(b1-4)GlcNAc
Outline: as §1

[3] = biological target: GlcNAc(b1-3)Gal(b1-4)GlcNAc(b1-2)Man(a1-3)[GlcNAc(b1-3)Gal(b1-4)GlcNAc(b1-2)Man(a1-6)]Man(b1-4)GlcNAc(b1-4)GlcNAc
Outline: as §1

[4] = biological target: GlcNAc(b1-3)Gal(b1-4)GlcNAc(b1-2)Man(a1-3)[GlcNAc(b1-3)Gal(b1-4)GlcNAc(b1-2)Man(a1-6)]Man(b1-4)GlcNAc(b1-4)[Fuc(a1-6)]GlcNAc
Outline: as §1

[5] = biological target: GlcNAc(b1-3)Gal(b1-4)GlcNAc(b1-2)[GlcNAc(b1-3)Gal(b1-4)GlcNAc(b1-6)]Man(a1-6)[GlcNAc(b1-3)Gal(b1-4)GlcNAc(b1-2)Man(a1-3)]Man(b1-4)GlcNAc(b1-4)GlcNAc
Outline: as §1

[6] = biological target: GlcNAc(b1-3)Gal(b1-4)GlcNAc(b1-3)Gal(b1-4)GlcNAc
Outline: as §1

[7] = biological target: GlcNAc(b1-3)Gal(b1-4)GlcNAc(b1-3)Gal(b1-4)GlcNAc(b1-2)Man(a1-3)[GlcNAc(b1-3)Gal(b1-4)GlcNAc(b1-3)Gal(b1-4)GlcNAc(b1-2)Man(a1-6)]Man(b1-4)GlcNAc(b1-4)GlcNAc
Outline: as §1

[8] = biological target: GlcNAc(b1-3)Gal(b1-4)GlcNAc(b1-3)Gal(b1-4)GlcNAc(b1-2)Man(a1-3)[GlcNAc(b1-3)Gal(b1-4)GlcNAc(b1-3)Gal(b1-4)GlcNAc(b1-2)Man(a1-6)]Man(b1-4)GlcNAc(b1-4)[Fuc(a1-6)]GlcNAc
Outline: as §1

[9] = biological target: GlcNAc(b1-3)Gal(b1-4)GlcNAc(b1-3)Gal(b1-4)GlcNAc(b1-2)[GlcNAc(b1-3)Gal(b1-4)GlcNAc(b1-3)Gal(b1-4)GlcNAc(b1-6)]Man(a1-6)[GlcNAc(b1-3)Gal(b1-4)GlcNAc(b1-3)Gal(b1-4)GlcNAc(b1-2)Man(a1-3)]Man(b1-4)GlcNAc(b1-4)[Fuc(a1-6)]GlcNAc
Outline: as §1

[10] = biological target: GlcNAc(b1-3)Gal(b1-4)GlcNAc(b1-3)Gal(b1-4)GlcNAc(b1-3)Gal(b1-4)GlcNAc(b1-2)Man(a1-3)[GlcNAc(b1-3)Gal(b1-4)GlcNAc(b1-3)Gal(b1-4)GlcNAc(b1-3)Gal(b1-4)GlcNAc(b1-2)Man(a1-6)]Man(b1-4)GlcNAc(b1-4)GlcNAc
Outline: as §1

[11] = biological target: GlcNAc(b1-3)Gal(b1-4)GlcNAc(b1-3)Gal(b1-4)GlcNAc(b1-3)Gal(b1-4)GlcNAc(b1-2)Man(a1-3)[GlcNAc(b1-3)Gal(b1-4)GlcNAc(b1-3)Gal(b1-4)GlcNAc(b1-3)Gal(b1-4)GlcNAc(b1-2)Man(a1-6)]Man(b1-4)GlcNAc(b1-4)[Fuc(a1-6)]GlcNAc
Outline: as §1

[12] = biological target: GlcNAc(b1-3)Gal(b1-4)GlcNAc(b1-3)Gal(b1-4)GlcNAc(b1-3)Gal(b1-4)GlcNAc(b1-2)[GlcNAc(b1-3)Gal(b1-4)GlcNAc(b1-3)Gal(b1-4)GlcNAc(b1-3)Gal(b1-4)GlcNAc(b1-6)]Man(a1-6)[GlcNAc(b1-3)Gal(b1-4)GlcNAc(b1-3)Gal(b1-4)GlcNAc(b1-3)Gal(b1-4)GlcNAc(b1-2)Man(a1-3)]Man(b1-4)GlcNAc(b1-4)[Fuc(a1-6)]GlcNAc
Outline: as §1

[13] = biological target: GlcNAc(b1-3)Gal(b1-4)GlcNAc(b1-3)Gal(b1-4)GlcNAc(b1-3)Gal(b1-4)GlcNAc(b1-3)Gal(b1-4)GlcNAc(b1-2)Man(a1-3)[GlcNAc(b1-3)Gal(b1-4)GlcNAc(b1-3)Gal(b1-4)GlcNAc(b1-3)Gal(b1-4)GlcNAc(b1-3)Gal(b1-4)GlcNAc(b1-2)Man(a1-6)]Man(b1-4)GlcNAc(b1-4)GlcNAc
Outline: as §1

[14] = biological target: GlcNAc(b1-3)Gal(b1-4)GlcNAc(b1-3)Gal(b1-4)GlcNAc(b1-3)Gal(b1-4)GlcNAc(b1-3)Gal(b1-4)GlcNAc(b1-2)Man(a1-3)[GlcNAc(b1-3)Gal(b1-4)GlcNAc(b1-3)Gal(b1-4)GlcNAc(b1-3)Gal(b1-4)GlcNAc(b1-3)Gal(b1-4)GlcNAc(b1-2)Man(a1-6)]Man(b1-4)GlcNAc(b1-4)[Fuc(a1-6)]GlcNAc
Outline: as §1

[15] = biological target: GlcNAc(b1-3)Gal(b1-4)GlcNAc(b1-3)Gal(b1-4)GlcNAc(b1-3)Gal(b1-4)GlcNAc(b1-3)Gal(b1-4)GlcNAc(b1-2)[GlcNAc(b1-3)Gal(b1-4)GlcNAc(b1-3)Gal(b1-4)GlcNAc(b1-3)Gal(b1-4)GlcNAc(b1-3)Gal(b1-4)GlcNAc(b1-6)]Man(a1-6)[GlcNAc(b1-3)Gal(b1-4)GlcNAc(b1-3)Gal(b1-4)GlcNAc(b1-3)Gal(b1-4)GlcNAc(b1-3)Gal(b1-4)GlcNAc(b1-2)Man(a1-3)]Man(b1-4)GlcNAc(b1-4)[Fuc(a1-6)]GlcNAc
Outline: as §1

[16] = biological target: GlcNAc(b1-3)Gal(b1-4)GlcNAc(b1-3)Gal(b1-4)GlcNAc(b1-3)GalNAc
Outline: as §1

[17] = biological target: GlcNAc(b1-3)Gal(b1-4)GlcNAc(b1-3)GalNAc
Outline: as §1

[18] = biological target: GlcNAc(b1-3)Gal(b1-4)GlcNAc(b1-3)[GlcNAc(b1-3)Gal(b1-4)GlcNAc(b1-3)]GalNAc
Outline: as §1

[19] = biological target: GlcNAc(b1-3)Gal(b1-4)GlcNAc(b1-6)[Gal(b1-3)]GalNAc
Outline: as §1

[20] = biological target: GlcNAc(b1-3)Gal(b1-4)GlcNAc(b1-6)[GlcNAc(b1-3)Gal(b1-3)]GalNAc
Outline: as §1

[21] = biological target: GlcNAc(b1-3)Gal(b1-4)GlcNAc(b1-6)[GlcNAc(b1-3)]Gal(b1-4)GlcNAc
Outline: as §1

[22] = biological target: GlcNAc(b1-3)GalNAc
Outline: as §1

[23] = biological target: GlcNAc(b1-3)Man
Outline: as §1

[24] = biological target: GlcNAc(b1-3)[GlcNAc(b1-4)][GlcNAc(b1-6)]GlcNAc
Outline: as §1

[25] = biological target: GlcNAc(b1-3)[GlcNAc(b1-6)]Gal(b1-4)GlcNAc
Outline: as §1

[26] = biological target: GlcNAc(b1-3)[GlcNAc(b1-6)]GalNAc
Outline: as §1

[27] = biological target: GlcNAc(b1-4)Gal(b1-4)GlcNAc
Outline: as §1

[28] = biological target: GlcNAc(b1-4)GlcNAc
Outline: as §1

[29] = biological target: GlcNAc(b1-4)GlcNAc(b1-4)GlcNAc
Outline: as §1

[30] = biological target: GlcNAc(b1-4)GlcNAc(b1-4)GlcNAc(b1-4)GlcNAc(b1-4)GlcNAc
Outline: as §1

[31] = biological target: GlcNAc(b1-4)GlcNAc(b1-4)GlcNAc(b1-4)GlcNAc(b1-4)GlcNAc(b1-4)GlcNAc
Outline: as §1

[32] = biological target: GlcNAc(b1-4)[GlcNAc(b1-6)]GalNAc
Outline: as §1

[33] = biological target: GlcNAc(b1-6)Gal(b1-4)GlcNAc
Outline: as §1

[34] = biological target: GlcNAc(b1-6)GalNAc
Outline: as §1

[35] = biological target: GlcNAc6S(b1-3)Gal(b1-4)GlcNAc
Outline: as §1

[36] = biological target: Kdn(a2-3)Gal(b1-3)GalNAc
Outline: as §1

[37] = biological target: Kdn(a2-3)Gal(b1-3)GlcNAc
Outline: as §1

[38] = biological target: Kdn(a2-3)Gal(b1-4)Glc
Outline: as §1

[39] = biological target: Kdn(a2-3)Gal(b1-4)GlcNAc
Outline: as §1

[40] = biological target: Kdn(a2-3)Gal(b1-4)[Fuc(a1-3)]GlcNAc
Outline: as §1

[41] = biological target: Kdn(a2-6)Gal(b1-4)GlcNAc
Outline: as §1

[42] = biological target: Man(a1-2)Man(a1-2)Man(a1-3)Man
Outline: as §1

[43] = biological target: Man(a1-2)Man(a1-2)Man(a1-6)[Man(a1-3)]Man
Outline: as §1

[44] = biological target: Man(a1-2)Man(a1-3)Man
Outline: as §1

[45] = biological target: Man(a1-2)Man(a1-3)[Man(a1-2)Man(a1-6)]Man
Outline: as §1

B1: Thrombomodulin (Mus musculus) (protein)
chain: ALAKLQPTGSQCVEHECFALFQGPATFLDASQACQRLQGHLMTVRSSVAADVISLLLSQSSMDLGPWIGLQLPQGCDDPVHLGPLRGFQWVTGDNHTSYSRWARPNDQTAPLCGPLCVTVSTATEAAPGEPAWEEKPCETETQGFLCEFYFTASC
For B1, the “glycan array binding signal (z-score)” value [1] was -0.068, the “glycan array binding signal (z-score)” value [2] was -0.109 and the “glycan array binding signal (z-score)” value [3] was -0.135. The “glycan array binding signal (z-score)” value [4] was 0.2, the “glycan array binding signal (z-score)” value [5] was -0.077 and the “glycan array binding signal (z-score)” value [6] was -0.109. For the same binder, the “glycan array binding signal (z-score)” value [7] was 0.553, the “glycan array binding signal (z-score)” value [8] was -0.017 and the “glycan array binding signal (z-score)” value [9] was -0.284. For the same binder, the “glycan array binding signal (z-score)” value [10] was 0.477, the “glycan array binding signal (z-score)” value [11] was 0.254 and the “glycan array binding signal (z-score)” value [12] was -0.094. For the same binder, the “glycan array binding signal (z-score)” value [13] was 0.02, the “glycan array binding signal (z-score)” value [14] was -0.16 and the “glycan array binding signal (z-score)” value [15] was 0.068. For the same binder, the “glycan array binding signal (z-score)” value [16] was -0.135, the “glycan array binding signal (z-score)” value [17] was -0.07 and the “glycan array binding signal (z-score)” value [18] was 0.05. For the same binder, the “glycan array binding signal (z-score)” value [19] was -0.178, the “glycan array binding signal (z-score)” value [20] was -0.037 and the “glycan array binding signal (z-score)” value [21] was -0.297. For the same binder, the “glycan array binding signal (z-score)” value [22] was -0.372, the “glycan array binding signal (z-score)” value [23] was 0.17 and the “glycan array binding signal (z-score)” value [24] was -0.119. For the same binder, the “glycan array binding signal (z-score)” value [25] was 0.124, the “glycan array binding signal (z-score)” value [26] was -0.252 and the “glycan array binding signal (z-score)” value [27] was -0.113. For the same binder, the “glycan array binding signal (z-score)” value [28] was -0.026, the “glycan array binding signal (z-score)” value [29] was -0.326 and the “glycan array binding signal (z-score)” value [30] was 0.022. The “glycan array binding signal (z-score)” value [31] was -0.096, the “glycan array binding signal (z-score)” value [32] was -0.367 and the “glycan array binding signal (z-score)” value [33] was 0.036. The “glycan array binding signal (z-score)” value [34] was -0.213, the “glycan array binding signal (z-score)” value [35] was 0.02 and the “glycan array binding signal (z-score)” value [36] was -0.027. The “glycan array binding signal (z-score)” value [37] was -0.121, the “glycan array binding signal (z-score)” value [38] was -0.413 and the “glycan array binding signal (z-score)” value [39] was 0.049. For the same binder, the “glycan array binding signal (z-score)” value [40] was -0.307, the “glycan array binding signal (z-score)” value [41] was -0.069 and the “glycan array binding signal (z-score)” value [42] was 0.005. The “glycan array binding signal (z-score)” value [43] was -0.278, the “glycan array binding signal (z-score)” value [44] was -0.114 and the “glycan array binding signal (z-score)” value [45] was -0.284.
